Laboratory results as given in patent publication US20210324039A1 (REMEGEN, published 2021).

Assays:
[1] = molecular target: VEGF and FGF (the VEGF end and the FGF end; one value from the 'single system analysis', target not stated separately); assay: binding activity analysis, single system analysis, finished product 5 C, 3 months
[2] = molecular target: VEGF and FGF (the VEGF end and the FGF end; one value from the 'single system analysis', target not stated separately); assay: binding activity analysis, single system analysis, finished product 25 C, 30 days
[3] = molecular target: T1, rhFGF2 (human, UniProt P09038 fragment, limits assumed); assay: BLI (ForteBio Octet), fusion protein loaded on the probe at 50 nM, rhFGF 50-400 nM in solution, N=3
T1 construct: also called bFGF
Description: (§1) VF28 and RC28-05 were tested for the affinity using ForteBio Octet (PALL). PBS (pH 7.4) was added as a balanced solution to each well of column 1 of the detection plate A-E, and the probe was soaked and activated for 10 min; RC28-05 and VF28 were diluted respectively to a concentration of 50 nM with PBS and added to column 2 of rows A-E of the 96-well assay plate with the program set to Loading for 300 s; PBS was added as a balanced solution to each well of column 3 of rows A-E of the detection plate with the program set to Baseline for 180 s; rhVEGF (R&D) and rhFGF (R&D) were diluted respectively to a concentration of 500 nM and 400 nM using PBS as the diluent, and then serially diluted at 1:2 for three gradients (a total of four gradients) to a concentration of 62.5 nM and 50 nM. The serially diluted samples were added to column 4 of rows A-D of the 96-well plate while the dilution was added to column 4 of row E as a negative control, with the program set to Association for 600 s; PBS was added as the dissociation solution to each well in column 5 of rows A-E with the program set to Dissociation for 1800 s; 10 mM glycine (pH 1.5) and PBS were added as the regeneration solution and the neutralization solution in columns 6 and 7 of rows A-E, respectively, with the programs respectively set to Regeneration and Neutralization for 15 s each, repeating for 5 times. A total of 3 cycles were tested. Data was analysed using Data analysis 7.0 software. The equilibrium constant (KD) value was calculated with the background subtracted using the corresponding unbound rhVEGF/rhFGF sensor as a control.

[4] = molecular target: VEGF and FGF (the VEGF end and the FGF end; one value from the 'single system analysis', target not stated separately); assay: binding activity analysis, single system analysis, finished product 5 C, 9 months
[5] = molecular target: VEGF and FGF (the VEGF end and the FGF end; one value from the 'single system analysis', target not stated separately); assay: binding activity analysis, single system analysis, finished product 5 C, 6 months
[6] = molecular target: VEGF and FGF (the VEGF end and the FGF end; one value from the 'single system analysis', target not stated separately); assay: binding activity analysis, single system analysis, finished product 25 C, 20 days
[7] = molecular target: VEGF and FGF (the VEGF end and the FGF end; one value from the 'single system analysis', target not stated separately); assay: binding activity analysis, single system analysis, finished product 25 C, 10 days
[8] = molecular target: T2, rhVEGF165 (human, UniProt P15692-4 27-191); assay: BLI (ForteBio Octet), fusion protein loaded on the probe at 50 nM, rhVEGF 62.5-500 nM in solution, N=3
T2 sequence (looked up): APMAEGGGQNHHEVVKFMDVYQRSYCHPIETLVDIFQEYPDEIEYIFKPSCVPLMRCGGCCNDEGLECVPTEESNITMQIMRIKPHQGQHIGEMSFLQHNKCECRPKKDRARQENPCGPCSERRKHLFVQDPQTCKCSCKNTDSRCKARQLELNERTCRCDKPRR
Description: as §1

[9] = molecular target: VEGF and FGF (the VEGF end and the FGF end; one value from the 'single system analysis', target not stated separately); assay: ELISA, single system analysis, stock solution -80 C, 9 months
[10] = molecular target: VEGF and FGF (the VEGF end and the FGF end; one value from the 'single system analysis', target not stated separately); assay: binding activity analysis, single system analysis, finished product 5 C, 12 months
[11] = molecular target: VEGF and FGF (the VEGF end and the FGF end; one value from the 'single system analysis', target not stated separately); assay: ELISA, single system analysis, stock solution -80 C, 6 months
[12] = molecular target: T2, rhVEGF165; assay: cell-based or functional assay
[13] = molecular target: T1, rhFGF2; assay: cell-based or functional assay
T1 sequence (P09038 143-288 limits assumed): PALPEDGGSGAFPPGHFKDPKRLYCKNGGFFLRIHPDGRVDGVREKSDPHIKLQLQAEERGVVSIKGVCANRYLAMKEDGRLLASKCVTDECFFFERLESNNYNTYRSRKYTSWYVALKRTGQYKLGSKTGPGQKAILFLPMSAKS

| Binder | Relative binding activity (%) [1] | Relative binding activity (%) [2] | Kd [3] | koff [3] | kon [3] | Relative binding activity (%) [4] | Relative binding activity (%) [5] | Relative binding activity (%) [6] | Relative binding activity (%) [7] | koff [8] | kon [8] | Relative binding activity (%) [9] | Relative binding activity (%) [10] | Relative binding activity (%) [11] | IC50 of inhibition of HUVEC cell proliferation stimulated by VEGF165 (CCK-8, 72 h) [12] | IC50 of inhibition of HUVEC cell proliferation stimulated by bFGF (CCK-8, 72 h) [13] | Kd [8] |
| --- | --- | --- | --- | --- | --- | --- | --- | --- | --- | --- | --- | --- | --- | --- | --- | --- | --- |
| RC28-05 fusion protein (Fc fusion, Expressed in CHO cells) GRPFVEMYSEIPEIIHMTEGRELVIPCRVTSPNITVTLKKFPLDTLIPDGKRIIWDSRKGFIISNATYKEIGLLTCEATVNGHLYKTNYLTHRQTNTIIDVVLSPSHGIELSVGEKLVLNCTARTELNVGIDFNWEYPSSKHQHKKLVNRDLKTQSGSEMKKFLSTLTIDGVTRSDQGLYTCAASSGLMTKKNSTFVRVHEKPVAPYWTSPEKMEKKLHAVPAAKTVKFKCPSSGTPNPTLRWLKNGKEFKPDHRIGGYKVRYATWSIIMDSVVPSDKGNYTCIVENEYGSINHTYQLDVVERSPHRPILQAGLPANKTVALGSNVEFMCKVYSDPQPHIQWLKHIEVNGSKIGPDNLPYVQILKTAGVNTTDKEMEVLHLRNVSFEDAGEYTCLAGNSIGLSHHSAWLTVLEA[human IgG1 Fc omitted] | 116% and 107% | 95.7% and 101% and 113% | 3.28 nM | 7.96e-05 s⁻¹ | 26600 M⁻¹ s⁻¹ | 105% and 112% and 110% | 108% and 102% and 98.5% | 104% and 120% and 119% | 109% and 108% | 5.65e-05 s⁻¹ | 230000 M⁻¹ s⁻¹ | 115% and 105% and 104% | 119% and 110% and 111% | 99.6% and 102% | 0.43 nM | 1.5 nM |  |
| VF28 (28# fusion protein of CN 201110131029.X) (Fc fusion, Earlier VEGFR-FGFR-Fc fusion protein, used as the comparator) GRPFVEMYSEIPEIIHMTEGRELVIPCRVTSPNITVTLKKFPLDTLIPDGKRIIWDSRKGFIISNATYKEIGLLTCEATVNGHLYKTNYLTHRQTNTIIDVVLSPSHGIELSVGEKLVLNCTARTELNVGIDFNWEYPSSKHQHKKLVNRDLKTQSGSEMKKFLSTLTIDGVTRSDQGLYTCAASSGLMTKKNSTFVRVHEKPNPVAPYWTSPEKMEKKLHAVPAAKTVKFKCPSSGTPNPTLRWLKNGKEFKPDHRIGGYKVRYATWSIIMDSVVPSDKGNYTCIVENEYGSINHTYQLDVVERSPHRPILQAGLPANKTVALGSNVEFMCKVYSDPQPHIQWLKHIEVNGSKIGPDNLPYVQILKTAGVNTTDKEMEVLHLRNVSFEDAGEYTCLAGNSIGLSHHSAWLTVLEALEERPAVMTSPLYLE[human IgG1 Fc omitted] |  |  | 5.24 nM | 9.78e-05 s⁻¹ | 19000 M⁻¹ s⁻¹ |  |  |  |  | 6.68e-05 s⁻¹ | 276000 M⁻¹ s⁻¹ |  |  |  | 0.48 nM | 3.2 nM | 0.251 nM |

Values joined by “and” are separate entries in the source; they are usually repeats but may differ in a detail not shown here. Identical values can stand only once.
